# The list shows a part of the results.
# Columns and labels:
# [1] = test system: HSkMC (human skeletal muscle cells); experiment: cytotoxicity call (relative viability < 0.9); settings: 10 µM
# [2] = test system: HepG2; experiment: cytotoxicity call (relative viability < 0.9); settings: 10 µM
# [3] = test system: S. aureus RN4220; experiment: growth inhibition call (relative growth <= 0.2); settings: 50 µM
SMILES,cytotoxicity call [1],cytotoxicity call [2],growth inhibition call [3]
C[C@H](CO)N1C[C@H](C)[C@@H](CN(C)Cc2ccc3c(c2)OCO3)Oc2ccc(NC(=O)Nc3ccc(C(F)(F)F)cc3)cc2C1=O,active,active,inactive
C[C@H](CO)N1C[C@H](C)[C@H](CN(C)S(=O)(=O)c2ccc(Cl)cc2)Oc2c(NC(=O)Nc3ccc(C(F)(F)F)cc3)cccc2C1=O,inactive,inactive,inactive
C[C@@H]1CN([C@@H](C)CO)C(=O)c2cc(NC(=O)Nc3ccccc3)ccc2O[C@@H](C)CCCCO[C@@H]1CN(C)Cc1ccc(C(F)(F)F)cc1,inactive,active,inactive
C[C@@H]1CN([C@H](C)CO)S(=O)(=O)c2ccc(C#Cc3ccccc3)cc2O[C@H]1CN(C)C(=O)c1ccccn1,inactive,inactive,inactive
Cc1noc(C)c1S(=O)(=O)Nc1ccc2c(c1)C(=O)N([C@H](C)CO)C[C@H](C)[C@@H](CN(C)S(=O)(=O)c1ccc(Cl)cc1)O2,inactive,inactive,inactive
O=C(Cc1ccccn1)NCC[C@H]1CC[C@@H](NC(=O)CN2CCOCC2)[C@@H](CO)O1,inactive,inactive,inactive
CC(=O)CCc1ccc(OC(C)=O)cc1,inactive,inactive,inactive
O=C(C[C@H]1CC[C@@H]2[C@H](COC[C@@H](O)CN2C(=O)c2ccccc2F)O1)N1CCN(c2ccccc2)CC1,inactive,inactive,inactive
C[C@@H]1CN([C@H](C)CO)C(=O)CCCn2nncc2CO[C@H]1CN(C)S(C)(=O)=O,inactive,inactive,inactive
C[C@H]1CN([C@@H](C)CO)C(=O)c2c(c3ccccc3n2C)-c2ccccc2CO[C@@H]1CN(C)C(=O)Nc1ccccc1C(F)(F)F,inactive,inactive,inactive
O=C(Nc1ccc(-c2nc3ccc(NC(=O)c4ccc(Cl)cc4)cc3[nH]2)cc1)c1ccc(Cl)cc1,active,active,inactive
Cc1noc(C)c1NC(=O)N(C)C[C@@H]1Oc2ncc(C#CCN(C)C)cc2C(=O)N([C@H](C)CO)C[C@@H]1C,inactive,inactive,inactive
C[C@@H]1CN([C@H](C)CO)C(=O)CCCn2cc(nn2)CO[C@@H]1CN(C)S(=O)(=O)c1ccc(Cl)cc1,inactive,inactive,inactive
C[C@H]1CN([C@@H](C)CO)C(=O)c2cc(NC(=O)NC3CCCCC3)ccc2O[C@H]1CN(C)S(=O)(=O)c1cn(C)cn1,inactive,inactive,inactive
C[C@H]1CN([C@@H](C)CO)C(=O)c2cc(NS(C)(=O)=O)ccc2O[C@H]1CN(C)Cc1ccc(C(=O)Nc2ccccc2N)cc1,inactive,inactive,inactive
COc1ccc(S(=O)(=O)N(C)C[C@H]2Oc3cc(C#CC4CCCC4)ccc3S(=O)(=O)N([C@@H](C)CO)C[C@H]2C)cc1,inactive,inactive,inactive
O=C(C[C@H]1C=C[C@H](NC(=O)c2cccnc2)[C@H](CO)O1)NCc1ccncn1,inactive,inactive,inactive
CS(=O)(=O)c1ccccc1CC(=O)O,inactive,inactive,inactive
Cc1noc(C)c1S(=O)(=O)Nc1ccc2c(c1)C(=O)N([C@@H](C)CO)C[C@H](C)[C@@H](CN(C)CC1CC1)O2,inactive,inactive,inactive

SMILES,cytotoxicity call [1],cytotoxicity call [2],growth inhibition call [3]
Cc1noc(C)c1S(=O)(=O)Nc1ccc2c(c1)C(=O)N([C@H](C)CO)C[C@@H](C)[C@@H](CN(C)S(=O)(=O)c1ccc(Cl)cc1)O2,inactive,inactive,inactive
COc1ccc(S(=O)(=O)Nc2ccc3c(c2)C(=O)N([C@@H](C)CO)C[C@@H](C)[C@H](CN(C)Cc2ccc4c(c2)OCO4)OCCCC[C@@H](C)O3)cc1,inactive,inactive,inactive
C[C@H]1CN([C@@H](C)CO)C(=O)Cc2cc(NC(=O)C3CC3)ccc2O[C@H]1CN(C)Cc1ccc2c(c1)OCO2,inactive,inactive,inactive
CC(=O)NS(=O)(=O)c1ccc(NC(=O)c2ccccc2C(=O)O)cc1,inactive,inactive,inactive
C[C@@H]1CN([C@@H](C)CO)C(=O)c2cc(NC(=O)Cc3ccccc3)ccc2O[C@@H](C)CCCCO[C@@H]1CN(C)Cc1ccncc1,inactive,inactive,inactive
Cc1noc(C)c1S(=O)(=O)Nc1ccc2c(c1)CC(=O)N([C@@H](C)CO)C[C@H](C)[C@H](CN(C)S(=O)(=O)c1c(C)noc1C)O2,inactive,inactive,inactive
CCO[C@H]1OC(C(=O)N2CCN(C)CC2)=C[C@@H](c2coc3ccccc3c2=O)[C@@H]1CCCOC(=O)NCCCCCC(=O)NO,inactive,inactive,inactive
NCc1n[nH]c(=O)c2ccccc12,inactive,inactive,inactive
C[C@@H]1CN([C@@H](C)CO)S(=O)(=O)c2ccc(C#CCN(C)C)cc2O[C@H]1CN(C)Cc1ccc2c(c1)OCO2,inactive,inactive,inactive
C[C@@H]1CN([C@@H](C)CO)C(=O)Cc2cc(NC(=O)CCN3CCOCC3)ccc2O[C@H]1CN(C)Cc1ccc2c(c1)OCO2,inactive,inactive,inactive
C[C@H](CO)N1C[C@H](C)[C@H](CN(C)C(=O)Nc2ccc(-c3ccccc3)cc2)OCc2ccccc2-c2ccccc2C1=O,inactive,inactive,inactive
C[C@@H]1CCCCO[C@@H](CN(C)C(=O)CCC(F)(F)F)[C@@H](C)CN([C@@H](C)CO)C(=O)c2cc(NC(=O)Nc3ccc4c(c3)OCO4)ccc2O1,inactive,inactive,inactive
CC(=O)OCC(=O)C12OC(C)(C)OC1CC1C3CC(F)C4=CC(=O)C=CC4(C)C3(F)C(O)CC12C (stereo unspecified),inactive,inactive,inactive
CNC(=O)c1c(O)c2ccccc2n(C)c1=O,inactive,active,inactive
C[C@H](CO)N1C[C@H](C)[C@@H](CN(C)Cc2ccc(-c3ccccc3)cc2)Oc2c(NC(=O)CCCCCC(=O)Nc3ccccc3N)cccc2C1=O,inactive,active,inactive
NC(=O)[C@@]1(CCS(=O)(=O)c2ccccc2)N=C(c2ccc(OCCCO)cc2)O[C@H]1c1ccccc1,inactive,inactive,inactive
CC(C)NC(=O)N(C)C[C@@H]1Oc2c(NS(=O)(=O)c3cn(C)cn3)cccc2C(=O)N([C@@H](C)CO)C[C@H]1C,inactive,inactive,inactive
C[C@@H]1CCCCO[C@H](CN(C)C(=O)C2CCCCC2)[C@H](C)CN([C@H](C)CO)C(=O)c2cc(NS(=O)(=O)c3ccccc3)ccc2O1,inactive,inactive,inactive
OCc1ccccn1,inactive,inactive,inactive

SMILES,cytotoxicity call [1],cytotoxicity call [2],growth inhibition call [3]
C[C@H](CO)N1C[C@H](C)[C@@H](CN(C)S(=O)(=O)c2ccc(F)cc2)Oc2ccc(NS(=O)(=O)c3ccccc3)cc2C1=O,inactive,inactive,inactive
[N-]=[N+]=Nc1ccccc1[C@@H]1OC(c2ccc(OCCCO)cc2)=N[C@]1(Cc1ccccc1)C(=O)NC[C@@H](O)CO,inactive,inactive,inactive
C[C@H]1CN([C@@H](C)CO)C(=O)c2cc(NS(=O)(=O)c3cn(C)cn3)ccc2O[C@@H]1CN(C)S(C)(=O)=O,inactive,inactive,inactive
C[C@H]1CN([C@@H](C)CO)C(=O)c2cc(NC(=O)NC3CCCCC3)ccc2O[C@H]1CN(C)Cc1ccc(-c2ccccc2)cc1,inactive,inactive,inactive
C[C@@H]1CN([C@H](C)CO)C(=O)CCCn2nncc2CO[C@H]1CN(C)S(=O)(=O)c1ccc(-c2ccccc2)cc1,inactive,inactive,inactive
CN1C(=O)CS(=O)(=O)[C@@H]1c1ccccc1,inactive,inactive,inactive
C[C@H](CO)N1C[C@H](C)[C@@H](CN(C)C(=O)Nc2ccc(F)cc2)Oc2c(NC(=O)CCCCCC(=O)Nc3ccccc3N)cccc2C1=O,inactive,inactive,inactive
C[C@H](CO)N1C[C@H](C)[C@H](CN(C)Cc2ccncc2)Oc2c(NC(=O)c3ccncc3)cccc2C1=O,inactive,inactive,inactive
C[C@@H]1CCCCO[C@@H](CN(C)C(=O)NC2CCCCC2)[C@H](C)CN([C@@H](C)CO)C(=O)c2cc(NC(=O)c3ccccc3)ccc2O1,inactive,inactive,inactive
O=C(O)c1cc(O)ccc1O,inactive,inactive,inactive
C[C@@]1(O)[C@H](O)[C@@H](CO)O[C@H]1n1ccc(N)nc1=O,inactive,inactive,inactive
COc1ccc(CN(C)C[C@@H]2Oc3ccc(NS(C)(=O)=O)cc3C(=O)N([C@H](C)CO)C[C@H]2C)cc1,inactive,inactive,inactive
C[C@H]1CN([C@@H](C)CO)C(=O)Cc2cc(NS(=O)(=O)c3ccc(Cl)cc3)ccc2O[C@H]1CN(C)S(=O)(=O)c1cn(C)cn1,inactive,inactive,inactive
C[C@@H]1CN([C@@H](C)CO)C(=O)c2cc(NC(=O)Nc3ccc4c(c3)OCO4)ccc2O[C@@H](C)CCCCO[C@@H]1CN(C)Cc1ccc2c(c1)OCO2,inactive,inactive,inactive
C[C@H]1CCCCO[C@H](CN(C)C(=O)C2CCCCC2)[C@@H](C)CN([C@@H](C)CO)C(=O)c2cc(NC(=O)c3ccncc3)ccc2O1,inactive,inactive,inactive
C[C@@H]1CN([C@@H](C)CO)C(=O)c2ccccc2-c2ccccc2CO[C@H]1CN(C)S(=O)(=O)c1ccc(C(F)(F)F)cc1,inactive,inactive,inactive
C[C@H]1CN([C@@H](C)CO)S(=O)(=O)c2ccc(C#CC3CCCC3)cc2O[C@@H]1CN(C)Cc1cncnc1,inactive,inactive,inactive
C[C@H]1CCCCO[C@@H](CN(C)Cc2ccncc2)[C@@H](C)CN([C@@H](C)CO)C(=O)c2cc(NC(=O)Cc3ccccc3)ccc2O1,inactive,inactive,inactive
O=C(C[C@@H]1CC[C@@H](NC(=O)Cc2ccccn2)[C@@H](CO)O1)NCCCN1CCOCC1,inactive,inactive,inactive

# Source: the antibiotic and cytotoxicity screens of Wong et al. (2023)
